Our source for the viability, T/C and IC50 values is PubChem BioAssay AID2060889 (Molecular Pharmacology Branch, DTP, NCI, 2025).

For the experiment, the system named is LG0567-F671-PDC complex spheroids viability. Kind of experiment: Anticancer human tumor LG0567-F671-PDC patient-derived lung adenocarcinoma cell line growth inhibition [RAS]. Particulars: for viability, T/C: stronger effect = lower value; for IC50: compound alone. The source says: RAS pathway inhibitors in Combinations in Complex Spheroids
A high-throughput screen of multi-cell type tumor spheroids was designed to identify active combinations of RAS pathway inhibitors and targeted small molecules. Complex spheroids include a stromal component modeled by human endothelial cells (HUVEC) and fibroblasts modeled by human mesenchymal stem cells (MSCs). The concentration ranges selected for each drug and investigational agent were based upon clinically achievable concentrations if the clinical Cmax of the agent was known.
Compounds. The drugs and investigational agents: abemaciclib (NSC768073), cobimetinib (NSC768068), divarasib (GDC6063, NSC841802), docetaxel (NSC628503), GDC-1971 (RLY-1971, NSC841576), gemcitabine (NSC613327), inavolisib (NSC800729), ipatasertib (NSC767898), KB-0742 (NSC834161), MRTX-1133 (NSC836407), osimertinib (NSC779217), RMC-4630 (NSC839698), RMC-6236 (NSC851965), RMC-6291 (NSC852671), Ro-3306 (NSC812927), sapanisertib (NSC764658), SN-38 (NSC673596), staurosporine (NSC755774), SY5609 (NSC837396), and tovorafenib (DAY101, NSC766906), were obtained from the National Cancer Institute (NCI) Developmental Therapeutics Program Chemical Repository. The FDA-approved anticancer drug set is available from the NCI Developmental Therapeutics Program. […] The stock solutions were prepared in dimethyl sulfoxide (DMSO, Sigma-Aldrich, St. Louis, MO, cat. D2650) at 800-fold the tested concentration and stored at -70 degrees C prior to their use. All drugs and investigational agents were tested over a range starting from a high concentration at or near the clinical Cmax and decreasing in half-log increments. If the clinical Cmax for an agent had not been determined, the highest concentration tested was 10 microM.
Cell Culture. All cells were maintained in an incubator at 37 degrees C and 5% CO2 with 95% humidity. The PDC lines were cultured according to standard operating procedures established by the NCI PDMR. All PDCs were thawed and cultured in Matrigel-coated flasks prepared with a working solution of 1X Ham's F-12 nutrient mix, without supplementation (Invitrogen, Waltham, MA, cat. 11765054), 100 U/mL penicillin-streptomycin (Invitrogen, cat. 15140122), and 2.5% Matrigel (Corning Inc., Corning, NY, cat. 354248) for the first three passages. The 362531-283-R-J2-PDC and 782815-120-R-J1-PDC lines were cultured in 6C/Colon 1B media, which includes advanced DMEM/F-12 (Thermo Fisher Scientific, cat. 12634028), 10 mM HEPES (Thermo Fisher Scientific, cat. 15630080), 1X GlutaMAX supplement (Thermo Fisher Scientific, cat. 35050061), 0.1 mg/mL primocin (InvivoGen, San Diego, CA, cat. ant-pm-2), 10% defined fetal bovine serum, heat inactivated (HyClone Laboratories Inc., Logan, UT, cat. SH30070.03HI), 50% L-WRN conditioned media (ATCC, cat. CRL-3276), 1.25 mM N-Acetyl-L-cysteine (Sigma-Aldrich, cat. A9165), 10 mM nicotinamide (Sigma-Aldrich, cat. N0636), 1X B-27 supplement (Thermo Fisher Scientific, cat. 17504044), 1X N-2 supplement (Thermo Fisher Scientific, cat. 17502048), 50 ng/mL human EGF (Thermo Fisher Scientific, cat. PHG0311), and 10 microM Y-27632 dihydrochloride (Tocris Bioscience, cat. 1254). The K12877-001-R-J1-PDC line was cultured in 6I media, which includes all 6C/Colon 1B media plus 10 ng/mL human FGF-10 (PeproTech, cat. 100-26), 1 ng/mL human FGF-2 (PeproTech, cat. 100-18B), 1 µM prostaglandin E2 (Tocris Bioscience, cat. 2296), […] hydrocortisone (Sigma-Aldrich, cat. H4001), and […] bovine insulin (Sigma-Aldrich, cat. I6634). The K86415-001-R-J1-PDC line was cultured in 6D media, which includes all 6C/Colon 1B media components minus the L-WRN conditioned media. The 485176-168-R4-J1-PDC was cultured in PANC media, which includes all 6C/Colon 1B media plus 100 ng/mL human FGF-10 (PeproTech, cat. 100-26), 500 nM SB-431542 (Selleckchem, cat. S1067), and 10 nM gastrin (Tocris Bioscience, cat. 3006). […]

Certain results were filed several times, with different values. The list is limited to them. There may be further records. The values listed for one entry are repeated measurements across runs, samples, wells, individuals or studies. Marks such as [2022-09] give the month of the run. Signs of the kind (2×) count equal records among those shown. Bounds are passed on as bounds.
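Further: spheroids exposed to compound for seven days before readout.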
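Wherever IC50 is given: luminescence signal used as a proxy for viable cells.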

Regarding `C=CC(=O)Nc1cc(Nc2nccc(-c3cn(C)c4ccccc34)n2)c(OC)cc1N(C)CCN(C)C`, the viability, T/C (compound alone 0.00316 µM) is 102%, 116% [2024-08] and 93%, 88.6% [2024-09].
Consider `CC(C)NCC(C(=O)N1CCN(c2ncnc3c2C(C)CC3O)CC1)c1ccc(Cl)cc1` (configuration not stated), for which, for the setting “compound alone 3.16 µM”, the viability, T/C is 59.6%, 91.6% [2024-08] and 62.5%, 65.7% [2024-09].
`CC(C)n1nc(-c2ccc3oc(N)nc3c2)c2c(N)ncnc21`: the IC50 was > 100 nM, 45 nM [2024-08] and 44.7 nM, 44.1 nM [2024-09]. Moreover, the viability, T/C (compound alone 0.1 µM) is 96%, 37.3% [2024-08] and 36.8%, 34.5% [2024-09].
Take `CC1(C)CCC(Nc2ncc(C(F)(F)F)c(-c3c[nH]c4c(P(C)(C)=O)c(C#N)ccc34)n2)CN1` (configuration not stated): the IC50 was > 300 nM (2×) [2024-08] and 12.3 nM, > 300 nM [2024-09]. The viability, T/C (compound alone 0.000949 µM) is 71.2%, 86.8% [2024-08] and 59.4%, 70% [2024-09].
As for `CC1(O)CCCC1n1c(=O)c(C(F)F)cc2cnc(NC3CCN(S(C)(=O)=O)CC3)nc21` (configuration not stated), the IC50 is 9.26 µM, > 10 µM [2024-08] and 6.84 µM, 6.63 µM [2024-09].
